# From the supplement of paper PMC3334620
# In all, about 33,000 sequences were measured (“E-score (-0.5 to 0.5)”: median about -0.043, highest 2% from about 0.37 on). This is one part of the list.
# Target: T1, Upc2 (UniProt Q12151)
# T1 sequence: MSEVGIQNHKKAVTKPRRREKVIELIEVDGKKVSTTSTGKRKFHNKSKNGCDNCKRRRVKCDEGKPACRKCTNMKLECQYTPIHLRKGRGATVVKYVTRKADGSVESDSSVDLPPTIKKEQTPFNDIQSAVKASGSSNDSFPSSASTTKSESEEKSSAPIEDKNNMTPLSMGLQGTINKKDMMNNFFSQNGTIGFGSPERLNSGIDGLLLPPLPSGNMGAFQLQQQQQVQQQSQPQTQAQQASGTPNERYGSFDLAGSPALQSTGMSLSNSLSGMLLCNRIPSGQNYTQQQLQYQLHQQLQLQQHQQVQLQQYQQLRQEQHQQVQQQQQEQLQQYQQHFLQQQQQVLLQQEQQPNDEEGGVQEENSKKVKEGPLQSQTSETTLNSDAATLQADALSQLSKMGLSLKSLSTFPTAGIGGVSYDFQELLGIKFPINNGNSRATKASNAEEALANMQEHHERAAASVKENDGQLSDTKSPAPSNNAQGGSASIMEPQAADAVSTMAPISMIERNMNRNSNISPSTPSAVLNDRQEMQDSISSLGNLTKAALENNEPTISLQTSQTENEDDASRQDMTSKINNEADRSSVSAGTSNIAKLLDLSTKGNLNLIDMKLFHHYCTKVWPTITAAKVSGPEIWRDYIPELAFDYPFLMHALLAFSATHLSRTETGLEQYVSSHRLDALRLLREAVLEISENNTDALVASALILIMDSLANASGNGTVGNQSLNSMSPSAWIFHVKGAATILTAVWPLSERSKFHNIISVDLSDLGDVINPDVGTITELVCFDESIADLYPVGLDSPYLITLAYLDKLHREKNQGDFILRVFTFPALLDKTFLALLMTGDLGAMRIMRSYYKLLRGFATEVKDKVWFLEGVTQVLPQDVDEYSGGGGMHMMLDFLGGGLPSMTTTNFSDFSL
# Experiment: PBM E-score (8-mer binding enrichment) (E-score (-0.5 to 0.5)); higher = stronger / more preferred TF binding; most listed sequences are background and not binding sites
# Conditions: protein concentration: 200 nM; construct: GST-full length
# In short: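 The E-score, a modified Wilcoxon-Mann-Whitney statistic, was computed by the Universal PBM Analysis Suite for every ungapped eight-base word pooled with its reverse complement. Scans behind it were normalised with masliner after bound GST-tagged yeast transcription factors were detected with fluorescent anti-GST. The proteins, at about 100-200 nM, had been applied to universal all-10-mer Agilent arrays made double-stranded by primer extension.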
row,Sequence,PBM E-score
1,CTTGAACA,0.0104
2,CAAGAGCC,-0.285
3,AAGCCGGA,-0.126
4,AACGTCGC,0.1
5,CACTGGGC,-0.242
6,GCTAATCC,-0.025
7,CAAGATCG,0.249
8,CTGTGGAA,-0.176
9,CTGTAAGC,-0.0287
10,GGTGCATA,-0.0936
11,TTGAGAAA,-0.0809
12,GCGGACCA,-0.056
13,ATGTAATA,0.0423
14,TACAAGGA,0.0076
15,GGCTCCTA,-0.0529
16,AAATTCTT,-0.114
17,CTTCACCC,0.0251
18,TATCTGCA,-0.0203
19,ACCTCCCG,0.0563
20,AATCCGGT,0.139
21,CAGGGGAC,-0.329
22,CGATGGCG,-0.00074
23,GACTAGAC,-0.125
24,CAAACACG,0.146

row,Sequence,PBM E-score
1,TGCGCTAA,0.161
2,GCCGTTCC,0.348
3,GAAACCAC,-0.144
4,GTTACGAA,0.409
5,ACGTGCAA,0.0824
6,CAGCCCGC,-0.382
7,AAACAATA,0.0112
8,GTCTCGAA,-0.0265
9,AGTCTCTC,-0.168
10,ATTGGCAG,-0.183
11,CAGCAAAG,-0.0457
12,TATCTTGA,-0.131
13,ACGCTGCC,-0.0218
14,CCCAAGAA,-0.243
15,ATAACTCG,0.167
16,GTTATAAC,0.028
17,ACCTTACT,0.146
18,TAAGGCGA,0.133
19,GATGGATA,-0.127
20,AATGCGAA,0.191
21,GTACGTAA,0.337
22,AACAGAGT,0.126
23,GCCATAAA,0.0123
24,AATCCAAT,-0.119

row,Sequence,PBM E-score
1,GGTAAACC,-0.133
2,AGCGGCAA,-0.15
3,GAGCCCCA,-0.114
4,AATTGAAC,0.0865
5,CCATACAG,0.00071
6,ACCCCTGG,-0.234
7,ACTATAGA,-0.237
8,GTCACGCA,-0.0435
9,ACCACCGG,-0.171
10,CAGCAAGC,-0.18
11,ACTCACTC,-0.07
12,CACCACTC,-0.114
13,CATTTGCA,0.193
14,AAGTTGAA,-0.031
15,CCATACTC,-0.0832
16,AGAACCTA,-0.057
17,ATGTCTCG,0.24
18,AGTTCAAG,0.129
19,ACCATCTA,-0.129
20,GCCTATGA,-0.231
21,AGCGCGCA,0.0723
22,AATCCCTC,-0.0204
23,CGAGCTTC,0.241
24,TAGCTTAA,0.0918

row,Sequence,PBM E-score
1,ACTATGCA,-0.0697
2,TAATATAA,0.132
3,GAAGCGCC,-0.08
4,GCTGACTA,-0.208
5,GACGCAAA,0.139
6,AAGGATGC,-0.0224
7,CCTGCTAG,-0.354
8,ACATCTCG,0.14
9,AGGCATTC,-0.298
10,AATGAGTG,-0.1
11,ATGCGGTC,-0.0656
12,CTGATCGC,-0.0401
13,AAGAATCC,-0.0798
14,CCATGCGA,0.101
15,CCCGCCCC,0.0468
16,ATCACTAA,0.0237
17,AAACACCT,-0.0522
18,TATCGTGA,0.0236
19,AGGTGTAC,0.117
20,AGTTCCAT,-0.0936
21,GAGTACCA,-0.183
22,GCGCTGAA,0.0222
